Consider 55 compounds from paper PMC4336329 (PLoS ONE, 2015).

Out of some 310,000 compounds screened, about 14,000 (4.5%) showed an effect of 50% or more. Effects have a minus sign here. This is one part of the list.
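Also: peak tail current of the secondary pulse compared with the same well before compound.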

This test deals with human ether-à-go-go-related gene (hERG) potassium channel (human, UniProt Q12809). The test can be described thus: primary screen, population patch clamp on CHO cells stably expressing hERG.
Sequence of human ether-à-go-go-related gene (hERG) potassium channel (Q12809 whole entry, looked up): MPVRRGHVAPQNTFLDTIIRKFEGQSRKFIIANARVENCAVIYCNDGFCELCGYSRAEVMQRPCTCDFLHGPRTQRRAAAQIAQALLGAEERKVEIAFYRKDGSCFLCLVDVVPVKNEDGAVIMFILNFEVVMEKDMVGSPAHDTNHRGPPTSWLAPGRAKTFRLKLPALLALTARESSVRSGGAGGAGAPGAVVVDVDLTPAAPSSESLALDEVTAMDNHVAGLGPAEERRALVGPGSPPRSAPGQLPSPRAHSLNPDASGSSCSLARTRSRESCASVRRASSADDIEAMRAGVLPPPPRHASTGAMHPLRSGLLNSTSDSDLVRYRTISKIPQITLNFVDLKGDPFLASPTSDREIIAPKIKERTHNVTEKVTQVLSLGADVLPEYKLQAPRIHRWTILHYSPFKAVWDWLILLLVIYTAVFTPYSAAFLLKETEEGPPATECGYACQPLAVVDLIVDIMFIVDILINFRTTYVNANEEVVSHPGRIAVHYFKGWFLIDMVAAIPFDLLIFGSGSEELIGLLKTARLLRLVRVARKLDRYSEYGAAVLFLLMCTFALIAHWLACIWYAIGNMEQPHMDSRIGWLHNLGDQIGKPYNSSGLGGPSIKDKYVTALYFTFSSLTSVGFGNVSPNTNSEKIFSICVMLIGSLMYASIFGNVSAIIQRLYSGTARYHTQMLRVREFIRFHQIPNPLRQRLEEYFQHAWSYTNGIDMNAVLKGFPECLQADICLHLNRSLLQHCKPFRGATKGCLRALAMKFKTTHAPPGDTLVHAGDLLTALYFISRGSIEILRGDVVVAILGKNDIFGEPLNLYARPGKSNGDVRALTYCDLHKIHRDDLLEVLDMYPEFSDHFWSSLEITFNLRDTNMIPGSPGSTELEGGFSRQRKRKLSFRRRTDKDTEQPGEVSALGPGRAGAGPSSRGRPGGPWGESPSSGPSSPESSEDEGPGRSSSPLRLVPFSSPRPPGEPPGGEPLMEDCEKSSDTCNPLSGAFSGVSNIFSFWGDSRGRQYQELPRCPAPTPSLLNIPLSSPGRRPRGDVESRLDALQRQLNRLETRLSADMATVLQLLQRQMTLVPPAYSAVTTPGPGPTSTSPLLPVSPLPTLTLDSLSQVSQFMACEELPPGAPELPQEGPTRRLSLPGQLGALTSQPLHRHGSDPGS
Take `O=C1CN(C(=O)COC(=O)Cc2ccsc2)c2ccccc2N1`: the “hERG current change (%, negative = inhibition) at 10uM” value is reported as -4.05%.

With `Cn1cnnc1SCCOc1ccc(Cl)cc1`, the “hERG current change (%, negative = inhibition) at 10uM” value is recorded as -5.37%.

With `Cc1cc2cc3c(C)cc(=O)oc3c(C)c2o1`, the “hERG current change (%, negative = inhibition) at 10uM” value was 19.8%.

Turning to `CN(C)CCCNc1ncc(C(F)(F)F)cc1Cl`, the “hERG current change (%, negative = inhibition) at 10uM” value is -7.97%.

Regarding `CC(CCc1ccccc1)C(=O)NO` (stereo not shown), the “hERG current change (%, negative = inhibition) at 10uM” value was determined as 9.51%.

In the case of `COc1ccc(-c2nc(CS(=O)CC(=O)NC3CCCCC3C)c(C)o2)cc1` (stereo not shown), the “hERG current change (%, negative = inhibition) at 10uM” value is -7.26%.

With `CCS(=O)(=O)c1nc(S(=O)(=O)c2ccc(C)cc2)c(NCCCN2CCOCC2)s1`, the “hERG current change (%, negative = inhibition) at 10uM” value turned out to be 5.74%.

For `CS(=O)(=O)N(CC(=O)N1CCN(c2ccc(F)cc2)CC1)c1cccc(Cl)c1`, the “hERG current change (%, negative = inhibition) at 10uM” value is given as -49.9%.

Take `O=C(COC(=O)c1cccc(S(=O)(=O)Nc2ccc(F)cc2)c1)NCCN1C(=O)CSC1=O`: the “hERG current change (%, negative = inhibition) at 10uM” value is listed as -8.83%.

On to `Cc1cccc(-n2c(SCC(=O)Nc3cccc(S(=O)(=O)NC4=NCCCCC4)c3)nc3ccccc3c2=O)c1C`, for which the “hERG current change (%, negative = inhibition) at 10uM” value is given as -20.7%.

On to `CCCNCC(O)Cn1c2ccccc2n2c(=O)cc(C)c(C#N)c12` (stereo not shown), for which the “hERG current change (%, negative = inhibition) at 10uM” value is given as -29.7%.

For `COCCNC(=O)CSc1nc2ccc(N3CCOCC3)cc2c(=O)n1CCc1ccccc1`, the “hERG current change (%, negative = inhibition) at 10uM” value was -55.1%.

With `COc1ccc(C)cc1-n1nnnc1SCC(=O)NC(=O)NCc1ccco1`, the “hERG current change (%, negative = inhibition) at 10uM” value came to 9.86%.

As to `CN(C)c1nc(/C=C(\C#N)C(N)=O)c(Cl)n1-c1ccc(F)cc1`, the “hERG current change (%, negative = inhibition) at 10uM” value was 5.02%.

Regarding `O=C(Cc1ccc(-n2cccc2)cc1)NC1CCCCC1`, the “hERG current change (%, negative = inhibition) at 10uM” value is -8.33%.

As to `Cc1ccc(NC(=O)NNC(=O)c2sccc2-n2cccc2)cc1`, the “hERG current change (%, negative = inhibition) at 10uM” value came to 26.6%.

`Cc1ccc(Cl)cc1NC(=O)Nc1c(C)n(C)n(-c2ccccc2)c1=O`: the “hERG current change (%, negative = inhibition) at 10uM” value amounted to 21.2%.

Turning to `N#CCSc1nc2c(sc(=S)n2Cc2ccco2)c(=O)n1-c1ccc(F)cc1`, the “hERG current change (%, negative = inhibition) at 10uM” value is given as -0.118%.

For the compound `COc1ccc(-c2cc(C(=O)N(C)CC(=O)Nc3ccccc3Cl)c3ccccc3n2)cc1OC`, the “hERG current change (%, negative = inhibition) at 10uM” value is recorded as -6.16%.

As for `COC(=O)CN(C#N)c1nc(NC(C)C)nc(OC)n1`, the “hERG current change (%, negative = inhibition) at 10uM” value was 0.361%.

Turning to `COc1ccc(CC(=O)NCC(=O)N=Nc2c(O)[nH]c3ccccc23)cc1`, the “hERG current change (%, negative = inhibition) at 10uM” value amounted to 10.8%.

Regarding `Cc1ccc(CNC(=O)CN(C(=O)C2(C)CC(=O)N=C3C=CC=CN32)c2ccc(F)cc2)cc1` (stereo not shown), the “hERG current change (%, negative = inhibition) at 10uM” value stood at 19.6%.

With `O=C(O)/C=C/C(=O)Nc1ccc(SC(F)(F)F)cc1`, the “hERG current change (%, negative = inhibition) at 10uM” value amounted to 15%.

Turning to `O=C1NC(=O)C(CCc2ccncc2)(CCc2ccncc2)C(=O)N1CCc1ccc(F)cc1`, the “hERG current change (%, negative = inhibition) at 10uM” value was -68.5%.

As to `COC(=O)Nc1sc(C(=O)N(C)C)c(C)c1C(=O)OC`, the “hERG current change (%, negative = inhibition) at 10uM” value came out at 6.87%.

With `CC(C)Cc1cc(C(=O)Nc2ccccc2)c2ccccc2n1`, the “hERG current change (%, negative = inhibition) at 10uM” value was -2.99%.

Take `Cc1ccc(S(=O)(=O)N/N=C2/CC(c3ccccc3)Oc3ccccc32)cc1` (stereo not shown): the “hERG current change (%, negative = inhibition) at 10uM” value was -19%.

Consider `COc1cc(/C=C/C(=O)OCC(=O)N2CC(=O)Nc3ccccc32)ccc1O`, for which the “hERG current change (%, negative = inhibition) at 10uM” value is -6.14%.

For `COC1C/C(=N\O)C2OC(c3ccccc3)OCC2O1` (stereo not shown), the “hERG current change (%, negative = inhibition) at 10uM” value was 2.38%.

With `Cc1cc(C)c(NC2=CC(=O)CC(C)(C)C2)c(C#N)c1.Cl`, the “hERG current change (%, negative = inhibition) at 10uM” value is -31.2%.

With `O=C(N/N=C/c1cccc(Cl)c1)c1c(O)c2c([nH]c1=O)CCCC2`, the “hERG current change (%, negative = inhibition) at 10uM” value is recorded as -9.64%.

With `Cc1cccc(NC(=S)NNC(=S)NCc2ccccc2)c1`, the “hERG current change (%, negative = inhibition) at 10uM” value stood at 9.96%.

As for `Cc1cccc(C)c1NC(=O)CNC(=O)c1ccccc1OCc1ccccc1`, the “hERG current change (%, negative = inhibition) at 10uM” value was -3.01%.

As for `COc1ccccc1NC(=O)C1CCCN1S(=O)(=O)c1cccc2nsnc12` (stereo not shown), the “hERG current change (%, negative = inhibition) at 10uM” value is given as -4.13%.

Turning to `CCOC(=O)C1=C(C)N=c2s/c(=C\c3cccn3C)c(=O)n2C1c1cccc(OC)c1OC` (stereo not shown), the “hERG current change (%, negative = inhibition) at 10uM” value is 4.74%.

In the case of `CC(=O)c1ccc(OCC(=O)N2CCN(S(=O)(=O)c3ccc(C)cc3C)CC2)cc1`, the “hERG current change (%, negative = inhibition) at 10uM” value is on record as -61.6%.

In the case of `Cc1cc(NC(=S)Nc2ccccc2)ccc1Br`, the “hERG current change (%, negative = inhibition) at 10uM” value is -24%.

As for `O=C(O)Cn1cnc2c(oc3ccccc32)c1=O`, the “hERG current change (%, negative = inhibition) at 10uM” value stood at 15.6%.

For the compound `Cc1ccc2c(c1)-c1c(ssc1=S)C(C)(C)N2C(=O)CSC1=NCCS1`, the “hERG current change (%, negative = inhibition) at 10uM” value amounted to 4.27%.

For `O=C(O)c1ccc(NC2CC(=O)N(Cc3ccccc3)C2=O)cc1` (stereo not shown), the “hERG current change (%, negative = inhibition) at 10uM” value came to 22.2%.

With `COc1ccc(S(=O)(=O)N2CCOC2CNC(=O)C(=O)NCc2ccncc2)cc1C` (stereo not shown), the “hERG current change (%, negative = inhibition) at 10uM” value was -9.1%.

Consider `CC(C)C1=NN(C(=O)c2cccnc2)C(O)(C(F)(F)F)C1` (stereo not shown), for which the “hERG current change (%, negative = inhibition) at 10uM” value was -13%.

Regarding `O=S(=O)(Cc1ccccc1)NCc1ccccn1`, the “hERG current change (%, negative = inhibition) at 10uM” value came out at 0.348%.

`COc1ccc(S(=O)(=O)N2CCC(C(=O)Nc3ccccc3N3CCCCC3)CC2)cc1OC`: the “hERG current change (%, negative = inhibition) at 10uM” value is on record as 3.04%.

For the compound `O=C(CN1CCOCC1)Nc1ccc2c(c1)OCCO2.O=C(O)C(=O)O`, the “hERG current change (%, negative = inhibition) at 10uM” value was 15%.

Regarding `O=S(=O)(NCc1cccnc1)c1ccc(Br)s1`, the “hERG current change (%, negative = inhibition) at 10uM” value is given as -1.75%.

In the case of `COc1ccc(C(CNC(=O)COc2ccccc2)N2CCCCC2)cc1` (stereo not shown), the “hERG current change (%, negative = inhibition) at 10uM” value is -29.3%.

On to `C[C@]12CCC[C@H](O1)c1c(cc3c(c1O)C(=O)c1c(O)cc(O)cc1C3=O)O2`, for which the “hERG current change (%, negative = inhibition) at 10uM” value came to 2.86%.

Regarding `CC(=O)c1ccc(NC(=O)c2cc(Cl)nc3ccccc23)cc1`, the “hERG current change (%, negative = inhibition) at 10uM” value was determined as 6.45%.

`CCNC(=O)Nn1c(-c2ccccc2)nc2ccccc2c1=O`: the “hERG current change (%, negative = inhibition) at 10uM” value was 22.9%.

For `O=C(O)[C@@H]1[C@@H]2C[C@@H]2CN1c1ncccc1[N+](=O)[O-]`, the “hERG current change (%, negative = inhibition) at 10uM” value is listed as 27.1%.

With `C=CCNc1nc(N)c([N+](=O)[O-])c(Nc2ccccc2OC)n1`, the “hERG current change (%, negative = inhibition) at 10uM” value is 7.01%.

`CCN(Cc1nc2ccccc2c(=O)[nH]1)C(=O)C1CC(=O)N(c2cccc3ccccc23)C1` (stereo not shown): the “hERG current change (%, negative = inhibition) at 10uM” value is -5.69%.

For the compound `O=C(c1ccc(OC2CCN(Cc3ccc(C(F)(F)F)cc3)CC2)cc1)N1CCCCC1`, the “hERG current change (%, negative = inhibition) at 10uM” value was -57.2%.

As for `Cc1cc(NC(=O)c2cnn3cccnc23)n(-c2ccccc2)n1`, the “hERG current change (%, negative = inhibition) at 10uM” value is given as -61.8%.
